The supplement of paper PMC3334620
Whole data set: some 33,000 sequences, median “E-score (-0.5 to 0.5)” near -0.013, cut for the highest 2% near 0.3. Some of the results follow.

target: T1, Msn1 (UniProt P22148); test: PBM E-score (8-mer binding enrichment) (E-score (-0.5 to 0.5)); higher = stronger / more preferred TF binding; most listed sequences are background and not binding sites; details: protein concentration: 200 nM; construct: GST-full length
T1 sequence: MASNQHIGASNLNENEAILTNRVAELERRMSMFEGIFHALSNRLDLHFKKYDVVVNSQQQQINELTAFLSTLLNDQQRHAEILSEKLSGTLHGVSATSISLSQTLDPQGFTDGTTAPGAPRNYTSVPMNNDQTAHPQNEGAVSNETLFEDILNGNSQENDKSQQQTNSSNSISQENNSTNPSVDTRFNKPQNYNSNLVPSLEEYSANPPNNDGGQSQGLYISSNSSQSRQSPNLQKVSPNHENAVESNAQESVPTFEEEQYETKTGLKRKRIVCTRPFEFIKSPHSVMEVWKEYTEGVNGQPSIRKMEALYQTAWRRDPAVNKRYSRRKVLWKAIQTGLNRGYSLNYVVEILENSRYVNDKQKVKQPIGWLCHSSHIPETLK
Method in brief: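 PURExpress in vitro transcription/translation supplied GST-tagged yeast transcription factors, either full-length or DNA-binding domain. Applied at about 100-200 nM to universal all-10-mer Agilent arrays double-stranded by primer extension, the bound protein was detected with fluorescent anti-GST. E-scores, modified Wilcoxon-Mann-Whitney statistics, were given by the Universal PBM Analysis Suite to ungapped eight-base words pooled with their reverse complements after masliner normalisation.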

Row | Sequence | PBM E-score
1 | CTCCGAAA | 0.0712
2 | GAGATGGA | -0.137
3 | ATCTCCGC | -0.208
4 | GGTATGTA | -0.0675
5 | CAAGAACA | -0.00332
6 | ACCCATCT | -0.0379
7 | CCACTTGC | -0.132
8 | AGCCCGGC | -0.0865
9 | CCCACAGC | -0.00603
10 | AAAGTACT | 0.0721
11 | CCAGACCG | -0.145
12 | GTAAGAAA | -0.0298
13 | CATCCACC | -0.111
14 | AACGAGTC | -0.0621
15 | AGCCTCGC | -0.179
16 | AGCATTGG | -0.227
17 | CATAACCA | -0.0131
18 | GTGAGTCA | -0.00724
19 | ATTAGTGA | 0.0344
20 | GCGTGGAA | -0.217
21 | GTACAAAC | 0.421
22 | TATGGTAA | 0.0198

Row | Sequence | PBM E-score
23 | GGCATGTA | 0.128
24 | ATAATTAG | 0.14
25 | ACCATGTG | -0.128
26 | AAAGCGTC | -0.0789
27 | TCCCATCA | -0.124
28 | ACTCTACC | -0.0418
29 | TGGAAGAA | 0.0848
30 | ATCATGCC | -0.0337
31 | GGTGGTAA | -0.00209
32 | AACCCAGG | -0.0759
33 | ATTGCGAA | -0.0849
34 | AGTCGGTA | -0.0985
35 | GTCAAGTA | 0.0507
36 | CGAAAGTC | 0.196
37 | CACTGCGC | -0.0604
38 | AAAGAGTG | -0.0168
39 | GTCCACTA | 0.15
40 | AGTAAAAG | 0.142
41 | GAGACTCC | -0.0748
42 | CAAAAGTG | 0.14
43 | CGCTGTCC | 0.102
44 | AGGAGAGA | -0.0434

Row | Sequence | PBM E-score
45 | ATTCAGTC | 0.0214
46 | AAAATAGA | 0.162
47 | AAATCACA | -0.0165
48 | AGCGGCCA | -0.215
49 | CGATCCCC | -0.193
50 | CCCGTGCC | -0.226
51 | GATGCTAC | -0.117
52 | ATGATGGC | -0.162
53 | AGCTACAA | -0.0544
54 | ACGAGAGA | -0.0508
55 | CAGGTTAA | 0.0612
56 | AAACTCTA | 0.00298
57 | CTATGAGA | -0.0425
58 | AAAATCTA | 0.0219
59 | AGTGCTGC | -0.164
60 | CAGTTATC | -0.222
61 | AACCCATA | 0.112
62 | ACCGTCGG | -0.251
63 | ATCGCCGG | 0.0491
64 | ACCCCTCG | -0.237
65 | GCTCCACC | -0.133
66 | AGTGACTG | -0.07

Row | Sequence | PBM E-score
67 | AGCTCAAC | 0.03
68 | GTTTTTAA | 0.1
69 | ATAGAATC | 0.0514
70 | AATTACGG | 0.0374
71 | ACATGATG | 0.133
72 | AACTCGGT | 0.0633
73 | AATGAAAT | 0.258
74 | AAAAAGAA | 0.036
75 | GCTCTACC | -0.249
76 | AACATTGT | 0.145
77 | AGTATCCC | -0.0802
78 | TCTCTGAA | -0.0233
79 | CATCGCAC | -0.212
80 | TCAGGACA | 0.461
81 | CGCGTCTC | 0.0892
82 | GACCGTTA | 0.0323
83 | TATACAGA | 0.173
84 | CGCATACA | 0.0313
85 | GCGGTAGA | -0.167
86 | ACTCTTAT | 0.13
87 | ACCTAAAA | 0.0426
88 | GGCGTTCA | -0.179

Row | Sequence | PBM E-score
89 | ACCCACTG | -0.0189
90 | CAGTACCC | -0.239
91 | ACGAATAG | 0.021
92 | CTCCTAGC | -0.27
93 | CCAGTAGG | -0.213
94 | TATTACCA | 0.0056
95 | ACTCTCCG | -0.11
96 | CGTGACGA | 0.00091
97 | TCCCGCAA | 0.127
98 | ACACTACA | 0.0311
99 | GGAGTTGA | -0.162
100 | ACGGAGGC | -0.314
101 | GATCACGC | 0.183
102 | AAGCGCAT | 0.0169
103 | CGAGTCGC | -0.25
104 | ACCAATTA | 0.015
105 | GACAACAC | 0.269
106 | TATAGTAA | 0.11
107 | CCCCCCTC | -0.368
108 | TAGTACGA | 0.0888
109 | AGTGTACA | 0.172
